# From publication PMC9911399, “Two distinct binding modes provide the RNA-binding protein RbFox with extraordinary sequence specificity”
# Substitutions are numbered along the chain they refer to; changes in the protein carry UniProt numbers. The list shows a part of the results.
# T1: RBFOX1 RRM RbFoxmut (Fox-RRM*) (Homo sapiens, UniProt Q9NWB1 109-208, R118D;E147R;N151S;E152T)
# T1 sequence: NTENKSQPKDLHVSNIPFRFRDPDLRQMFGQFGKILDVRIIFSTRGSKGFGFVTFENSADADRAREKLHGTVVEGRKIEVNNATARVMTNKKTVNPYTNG
# B1: GCAUGCC (DNA:RNA)
# RNA: GGGAGACCGGAAUUCAGAUUGUCCGCAUGCCUUAAAUCCCGUCGUAGCCACCA
# DNA 1: CAATCTGAATTCCGGTCTCCC
# DNA 2: TGGTGGCTACGACGGGATT
# B2: AGCCAGA (DNA:RNA)
# RNA: GGGAGACCGGAAUUCAGAUUGUCCAGCCAGAUUAAAUCCCGUCGUAGCCACCA
# DNA 1: CAATCTGAATTCCGGTCTCCC
# DNA 2: TGGTGGCTACGACGGGATT
# B3: CACUGGG (DNA:RNA)
# RNA: B2 RNA with A25C, G26A, C28U, A29G, A31G
# DNA 1: CAATCTGAATTCCGGTCTCCC
# DNA 2: TGGTGGCTACGACGGGATT
# B4: CUGUGAA (DNA:RNA)
# RNA: B1 RNA with G25C, C26U, A27G, C30A, C31A
# DNA 1: CAATCTGAATTCCGGTCTCCC
# DNA 2: TGGTGGCTACGACGGGATT
# B5: ACUCGUU (DNA:RNA)
# RNA: B2 RNA with G26C, C27U, A29G, G30U, A31U
# DNA 1: CAATCTGAATTCCGGTCTCCC
# DNA 2: TGGTGGCTACGACGGGATT
# B6: CGCGUUA (DNA:RNA)
# RNA: B2 RNA with A25C, C28G, A29U, G30U
# DNA 1: CAATCTGAATTCCGGTCTCCC
# DNA 2: TGGTGGCTACGACGGGATT
# B7: CACAUUG (DNA:RNA)
# RNA: B2 RNA with A25C, G26A, C28A, A29U, G30U, A31G
# DNA 1: CAATCTGAATTCCGGTCTCCC
# DNA 2: TGGTGGCTACGACGGGATT
# B8: UCCCAGU (DNA:RNA)
# RNA: B2 RNA with A25U, G26C, A31U
# DNA 1: CAATCTGAATTCCGGTCTCCC
# DNA 2: TGGTGGCTACGACGGGATT
# B9: ACUUACG (DNA:RNA)
# RNA: B1 RNA with G25A, A27U, G29A, C31G
# DNA 1: CAATCTGAATTCCGGTCTCCC
# DNA 2: TGGTGGCTACGACGGGATT
# B10: GUUUCCA (DNA:RNA)
# RNA: B1 RNA with C26U, A27U, G29C, C31A
# DNA 1: CAATCTGAATTCCGGTCTCCC
# DNA 2: TGGTGGCTACGACGGGATT
# B11: UUUCCGG (DNA:RNA)
# RNA: B2 RNA with A25U, G26U, C27U, A29C, A31G
# DNA 1: CAATCTGAATTCCGGTCTCCC
# DNA 2: TGGTGGCTACGACGGGATT
# B12: AGGAUCG (DNA:RNA)
# RNA: B2 RNA with C27G, C28A, A29U, G30C, A31G
# DNA 1: CAATCTGAATTCCGGTCTCCC
# DNA 2: TGGTGGCTACGACGGGATT
# B13: CUACAAG (DNA:RNA)
# RNA: B2 RNA with A25C, G26U, C27A, G30A, A31G
# DNA 1: CAATCTGAATTCCGGTCTCCC
# DNA 2: TGGTGGCTACGACGGGATT
# B14: ACAGCUA (DNA:RNA)
# RNA: B2 RNA with G26C, C27A, C28G, A29C, G30U
# DNA 1: CAATCTGAATTCCGGTCTCCC
# DNA 2: TGGTGGCTACGACGGGATT
# B15: CUCCUCC (DNA:RNA)
# RNA: B2 RNA with A25C, G26U, A29U, G30C, A31C
# DNA 1: CAATCTGAATTCCGGTCTCCC
# DNA 2: TGGTGGCTACGACGGGATT
# B16: UCCUAGC (DNA:RNA)
# RNA: B2 RNA with A25U, G26C, C28U, A31C
# DNA 1: CAATCTGAATTCCGGTCTCCC
# DNA 2: TGGTGGCTACGACGGGATT
# B17: UUCAAGU (DNA:RNA)
# RNA: B2 RNA with A25U, G26U, C28A, A31U
# DNA 1: CAATCTGAATTCCGGTCTCCC
# DNA 2: TGGTGGCTACGACGGGATT
# B18: CCAAGAU (DNA:RNA)
# RNA: B1 RNA with G25C, U28A, C30A, C31U
# DNA 1: CAATCTGAATTCCGGTCTCCC
# DNA 2: TGGTGGCTACGACGGGATT
# B19: AAUUAAA (DNA:RNA)
# RNA: B2 RNA with G26A, C27U, C28U, G30A
# DNA 1: CAATCTGAATTCCGGTCTCCC
# DNA 2: TGGTGGCTACGACGGGATT
# B20: GGAAGUA (DNA:RNA)
# RNA: B1 RNA with C26G, U28A, C30U, C31A
# DNA 1: CAATCTGAATTCCGGTCTCCC
# DNA 2: TGGTGGCTACGACGGGATT
# Biological target: T1, RBFOX1 RRM RbFoxmut (Fox-RRM*)
# Test: EMSA; HiTS-Eq, 1 nM pool, 10 min; buffer printed only for the single-RNA assays: 10 mM Tris pH 7.5, 150 mM NaCl, 3.4 mM EDTA, 0.001% NP-40, 30 C
# Details: tags: His6 N-terminal (pET28a); label: 5' 32P
# Method in brief: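 Relative association constants, normalised to the cognate motif, were derived by comparing read counts of each RNA species with those of the control reaction. The RNA sequenced was the free fraction, separated by 8% native PAGE after a 10 min equilibration in 50 µL of 1 nM 5′-radiolabelled RNA (7 randomized nucleotides) with increasing concentrations of purified wild-type or mutant RbFox RRM.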
row,Binder,binding signal
1,B1,0.651 KA relative to UGCAUGU
2,B2,0.0803 KA relative to UGCAUGU
3,B3,0.0836 KA relative to UGCAUGU
4,B4,0.116 KA relative to UGCAUGU
5,B5,0.113 KA relative to UGCAUGU
6,B6,0.111 KA relative to UGCAUGU
7,B7,0.116 KA relative to UGCAUGU
8,B8,0.106 KA relative to UGCAUGU
9,B9,0.121 KA relative to UGCAUGU
10,B10,0.121 KA relative to UGCAUGU
11,B11,0.0808 KA relative to UGCAUGU
12,B12,0.296 KA relative to UGCAUGU
13,B13,0.0447 KA relative to UGCAUGU
14,B14,0.124 KA relative to UGCAUGU
15,B15,0.0813 KA relative to UGCAUGU
16,B16,0.108 KA relative to UGCAUGU
17,B17,0.0862 KA relative to UGCAUGU
18,B18,0.094 KA relative to UGCAUGU
19,B19,0.093 KA relative to UGCAUGU
20,B20,0.124 KA relative to UGCAUGU
